Experimental data published in PubChem BioAssay AID686971 (National Center for Advancing Translational Sciences (NCATS), 2013).
Out of some 360,000 compounds screened, about 7,500 (2.1%) were called active. Inconclusive means that the source gave no clear call. Such entries were picked first, then a sample of the others. The call rests on the fitted dose curve; in most records, active means well fitted cell-killing curve with a large enough effect; inconclusive means small, poorly fitted or top-dose-only effect, or effect the other way, or another doubt; inactive means no such curve, though single readings can be large or run the other way. Potencies of inconclusive entries are left out as doubtful fits.

experiment: qHTS for induction of synthetic lethality in tumor cells producing 2HG: qHTS for the HT-1080-IDH1KD cell line; settings: HT-1080 IDH1 knockdown viability, ATP luminescence, 48 h; activity, negative = toxicity: at 46.1 µM (top of the series) unless noted;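 on activity, negative = toxicity: 0% = DMSO wells and -100% = cell-free medium wells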
Summary of the method: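 % activity derives from luminescence (CellTiter-Glo), normalised to DMSO and no-cell wells. HT-1080-IDH1KD cells, 750/well, had 48 h compound exposure at 37 °C.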
Potency means the concentration at half of the fitted maximal effect; tags describe the fitted curve by direction and shape.

| Compound | Potency | activity, negative = toxicity |
| --- | --- | --- |
| CC1CCCCN1C(=O)CSc1nc2ccccc2n1CC(=O)N1CCc2ccccc21 (stereo unspecified) | inconclusive [cytotoxic, single point] |  |
| COC(=O)c1cccc(C23CC4(C2)[C@H](CN(C)[C@@H]4c2ccccc2)C3c2ccc(C(F)(F)F)cc2)c1 (stereo partly specified) |  | inactive: 4.97% |
| CCN(CC)CCC(=O)N1c2ccccc2Sc2ccc(Cl)cc21 | active: 20.6 µM |  |
| COc1ccc(NC(=O)C2(C)Cc3c(-c4ccc(C(N)=O)cc4)ccnc3O2)cn1 (stereo unspecified) | inconclusive [cytotoxic, single point] |  |
| O=C(NCCC1=CCCCC1)c1[nH]c(C(F)(F)F)nc1-c1ccccc1 | inconclusive [cytotoxic, single point] |  |
| CNc1ccc(/C=C/C(=O)c2ccc(C)cc2)cc1[N+](=O)[O-] | inconclusive [cytotoxic, partial curve, poor fit] |  |
| CN(C)C1=NC[C@H](Cc2ccccc2)N1CC1CCCCCC1 |  | inactive: -25.9% |
| Cc1cc(N(C)Cc2ccccc2)nc(-c2ccccc2)n1 | inconclusive [cytotoxic, single point] |  |
| COc1ccc(OC)c(NC(=O)CC2C(=O)NCCN2C(=O)Nc2cccc(Cl)c2)c1 (stereo unspecified) | inconclusive [cytotoxic, single point] |  |
| CC(C)c1ccc(N=C2N=C(N)c3ccccc32)cc1 | inconclusive [cytotoxic, single point] |  |
| O=C(c1ccc(F)cc1)N1CCC(C(=O)N2CCN(Cc3ccc4c(c3)OCO4)CC2)CC1 |  | inactive: -5.38% |
| CCn1c(=S)sc2c(=O)n(-c3ccccc3)c(SCC(=O)NCc3ccco3)nc21 |  | inactive: -23.5% |
| CC(=O)Nc1ccc(-c2ccnc3c2CC(C(=O)Nc2cccc(OC(F)(F)F)c2)O3)cc1 (stereo unspecified) | inconclusive [cytotoxic, single point] |  |
| COc1ccc(-c2csc(C(C)(O)c3cccc(OC)c3)n2)cc1 (stereo unspecified) | inconclusive [cytotoxic, partial curve] |  |
| CCCCC(=O)N(C)c1c(C)nc2ccc(C(=O)N3CCCCC3)cn12 | inconclusive [rising, single point] |  |
| c1ccc2c(c1)ncn2-c1ncnc2sc3c(c12)CCCC3 |  | inactive: -10.6% |
| CC(=O)n1c2c(c3ccccc31)OC(N)=C(C#N)C2c1cccc(Cl)c1Cl (stereo unspecified) | inconclusive [cytotoxic, single point] |  |
| CCN(CC)c1ccc(S(=O)(=O)Nc2cc(Cl)ccc2Cl)cc1NC(=S)NC(=O)C1CCCC1 | inconclusive [cytotoxic, single point] |  |
| Cc1cccc(OCc2nnc(SCC(=O)Nc3cc(C)on3)n2C)c1 |  | inactive: 8.01% |
| O=C(NCc1nnc(SCc2ccccc2)n1-c1ccc(F)cc1)C12CC3CC(CC(C3)C1)C2 | inconclusive [cytotoxic, single point] |  |
| CCCCn1nnnc1C(c1cc2ccccc2o1)N(CCN(C)C)Cc1ccccc1 (stereo unspecified) | active: 20.6 µM |  |
| COc1cc(SC)ccc1C(=O)NC1CCCc2ccccc21 (stereo unspecified) | inconclusive [cytotoxic, single point] |  |
| Cn1cnc([N+](=O)[O-])c1S(=O)(=O)Oc1cccc2ccccc12 | active: 2.59 µM |  |
| Nc1cc(C(=O)O)c(N)c2c1C(=O)c1ccccc1C2=O | inconclusive [cytotoxic, single point] |  |

| Compound | Potency | activity, negative = toxicity |
| --- | --- | --- |
| Cc1cccnc1C(NC(=O)C1CCN(CCOc2ccc(F)cc2)CC1)c1ccc(Cl)cc1 (stereo unspecified) | active: 16.4 µM |  |
| O=C(Cn1cnc2c(nnn2-c2ccccc2)c1=O)NCc1ccc(F)cc1 | inconclusive [cytotoxic, single point] |  |
| O=C(NC(=S)NNC(=O)c1ccccc1O)c1ccc(F)cc1 | inconclusive [cytotoxic, partial curve] |  |
| CC(C)(C)c1ccc(C(=O)CC(Sc2ccc(Cl)cc2)C(=O)O)cc1 (stereo unspecified) | active: 14.6 µM |  |
| Cc1nc2scc(-c3ccccc3)c2c(=O)n1N=C1C=CC(=O)C=C1 | inconclusive [cytotoxic, single point] |  |
| CC(C)(C)n1nnnc1C(c1cc2ccccc2o1)N(Cc1ccccc1)Cc1ccccc1 (stereo unspecified) | inconclusive [cytotoxic, single point] |  |
| CC1CCC(NC(=O)c2cccc(S(=O)(=O)N3CCOCC3)c2)CC1 (stereo unspecified) |  | inactive: 1.01% |
| C#CCNC(=O)C[C@@H]1C[C@@]2(C(=O)OCC)CCC=C2N(Cc2ccc3c(c2)OCO3)C1=O | inconclusive [cytotoxic, single point] |  |
| CNc1nc(SC(C)C(=O)Nc2ccc(Cl)c(Cl)c2)nc(N2CCOCC2)n1 (stereo unspecified) |  | inactive: 4.75% |
| O=C(Nc1cccc(Cl)c1)c1ccc(NCCCN2CCOCC2)c([N+](=O)[O-])c1 | inconclusive [cytotoxic, single point] |  |
| CCOc1ccc(C(=O)Nc2nnc(NC(=S)Nc3ccccc3)s2)cc1 | inconclusive [cytotoxic, single point] |  |
| CC(CC(=O)Nc1ccc2c(c1)c(=O)n(C)n2-c1cccs1)c1ccccc1 (stereo unspecified) | active: 4.11 µM |  |
| CCCCC(CC)COC1(c2ccccc2)OC(=O)c2ccccc21 (stereo unspecified) | inconclusive [cytotoxic, single point] |  |
| NNC(=S)Nc1ccccc1Cl | inconclusive [cytotoxic, single point] |  |
| CCOc1cc(CNCCO)cc(Br)c1OCc1cccs1 | active: 11.2 µM |  |
| COC(=O)C[C@H]1C=C[C@@H](NS(=O)(=O)c2ccccc2)[C@@H](CO)O1 |  | inactive: 9.4% |
| C=C(C)COc1ccc(-c2nc(N)nc(C(F)(F)F)c2-c2ccc(OC)cc2)c(O)c1 | inconclusive [cytotoxic, single point] |  |
| C[C@@H]1CN([C@@H](C)CO)C(=O)Cc2cc(NC(=O)Nc3ccc(F)cc3)ccc2O[C@@H]1CN(C)Cc1ccc(Cl)c(Cl)c1 | inconclusive [cytotoxic, single point] |  |
| O=C(NCc1nnc(SCc2ccccc2)n1-c1ccccc1)C12CC3CC(CC(C3)C1)C2 | inconclusive [cytotoxic, single point] |  |
| Cc1ccc(C)c(N2CCN(S(=O)(=O)c3cn(C)cn3)CC2)c1 |  | inactive: -3.66% |
| Cc1csc(N=Nc2ccc(N(C)C)cc2)[n+]1[O-] | inconclusive [cytotoxic, single point] |  |
| Cc1ccc(C(=O)CN(CCC(=O)O)S(=O)(=O)c2ccc([N+](=O)[O-])cc2)cc1 |  | inactive: 9.72% |
| CN(Cc1ccccc1)C(=O)CC(c1ccccc1)c1cc(Cl)ccc1O (stereo unspecified) | inconclusive [cytotoxic, single point] |  |
| CN(C)CCN(C(=O)c1cc(Cl)sc1Cl)c1nc2ccc(F)cc2s1 |  | inactive: -6.72% |

| Compound | Potency | activity, negative = toxicity |
| --- | --- | --- |
| Cn1c(=NC(=O)CS(=O)(=O)c2ccccc2)sc2cc(F)ccc21 |  | inactive: -1.89% |
| C[C@H](NC(=O)c1nc[nH]c1C(=O)NCC(=O)OCc1ccccc1)c1ccccc1 |  | inactive: -1.17% |
| COc1ccc2cc1Oc1ccc(cc1)C[C@H]1c3c(cc(OC)c4c3Oc3c(ccc5c3[C@H](C2)N(C)CC5)O4)CCN1C |  | inactive: -2% |
| CN(Cc1ccccc1)CC(O)COc1ccc(CNCCCOc2cccnc2)cc1 (stereo unspecified) | inconclusive [cytotoxic, single point] |  |
| NC1=NC[C@H](CC2CCCCC2)N1CCc1cc(C(F)(F)F)cc(C(F)(F)F)c1 | inconclusive [cytotoxic, single point] |  |
| CCOC(=O)Nc1cc(=O)c2ccccc2o1 | inconclusive [cytotoxic, partial curve] |  |
| CS(=O)(=O)c1ccccc1C(=O)Nc1ccc(-c2nc3ccccc3o2)cc1 |  | inactive: -1.61% |
| Cc1cc(C)n(CC(=O)N/N=C/c2cc(Br)cc([N+](=O)[O-])c2O)n1 |  | inactive: -10.7% |
| CCOC(=O)/C(=C\c1ccc(Cl)cc1)c1nc2sc(C)c(C)c2c(=O)[nH]1 | active: 11.6 µM |  |
| O=C(NC(NC(=S)Nc1ccc(Cl)cc1)C(Cl)(Cl)Cl)c1ccco1 (stereo unspecified) | inconclusive [cytotoxic, single point] |  |
| O=C(NCc1ccc(Cl)c(Cl)c1)c1cc(C2CCCCN2C(=O)c2ccccn2)on1 (stereo unspecified) |  | inactive: -17.8% |
| C[C@@]12CC(=O)NC1N(C(=O)c1ccccc1)C(c1ccccc1OC(=O)c1ccccc1)C2 (stereo partly specified) |  | inactive: -17.6% |
| COC(=O)c1cccc(S(=O)(=O)N2CCC(n3nnc4cc(F)ccc43)CC2)c1 |  | inactive: -11.8% |
| CC1CCc2cc(F)ccc2N1C(=O)CCl (stereo unspecified) | inconclusive [cytotoxic, single point] |  |
| COc1ccccc1N1CCN(C(=O)c2ccc(-c3ccc(Cl)cc3)o2)CC1 | active: 5.17 µM |  |
| COc1ccc(O)c(/C=N/Nc2nc(Nc3ccccc3)nc(-n3nc(C)cc3C)n2)c1 | active: 16.4 µM |  |
| CCOC(=O)c1cc2ccccc2n1C1CCN(CCc2ccccc2)CC1 | inconclusive [cytotoxic, single point] |  |
| CCN(CC)CCSc1nnc2c3ccccc3n(Cc3ccccc3)c2n1 | inconclusive [cytotoxic, partial curve] |  |
| N/C(=N\OC(=O)Cc1ccc([N+](=O)[O-])cc1)c1ccccn1 | inconclusive [cytotoxic, single point] |  |
| O=C(NCc1c(Cl)cccc1Cl)c1ccc2nnsc2c1 |  | inactive: -1.23% |
| COC(c1ccccc1)c1nnc(CCC(=O)N(C)CCCC2CCCC2)o1 (stereo unspecified) |  | inactive: -0.194% |
| CC12CCC(=O)N1C(C(=O)OCC(=O)Nc1cccc(Br)c1)CS2 (stereo unspecified) | inconclusive [rising, single point] |  |
| CCOc1ccc(CCNC(=O)C(C)n2nc(C)c3c(C)n(-c4ccccc4)nc3c2=O)cc1 (stereo unspecified) | inconclusive [cytotoxic, single point] |  |
